Data from PubChem BioAssay (Tox21).
Values joined by “and” are separate entries in the source; they are usually repeats but may differ in a detail not shown here. Equal entries are not always repeated. This list was built around the results that the source calls inconclusive (neither active nor inactive); the mix of calls is not that of the screen. For some assays here: Potencies beside an inconclusive call are fits to weak or partial responses and may not hold up. Some compounds were tested as several samples or in several runs, with calls that do not always agree. Active and inactive are the calls of the source. Unless noted, the call rests on the fitted dose curve; in most records, active means well fitted curve in the direction sought with a large enough effect in the repeat runs; inconclusive means weak or mixed curves; inactive means no such curve, though single readings can be large; an effect the other way counts as inactive or inconclusive.

Columns and labels:
[1] = qHTS assay to identify small molecule antagonists of the androgen receptor (AR) signaling pathway using the MDA cell line in the presence of 0.5 nM R1881 - cell viability counter screen (AID 1259242); further: nearly all actives have a fitted effect of over 45% in size
Outline: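 Concentration-response screen of compounds for toxicity in MDA-kb2 reporter cells: 16 hr at 37C with 0.5 nM R1881, endpoint live-cell protease fluorescence measured in the reporter wells.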

[2] = qHTS assay to identify small molecule HDAC inhibitors - cell viability counter screen (AID 1259365); further: nearly all actives have a fitted effect of over 50% in size
Outline: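 HCT-116 wild-type, overnight attachment; 2hr drug exposure, 37C; CellTiter-Glo luminescent ATP readout after 30min RT.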

[3] = qHTS assay to identify small molecule antagonists of the sonic hedgehog signaling (Shh) pathway - cell viability counter screen (AID 1259367); further: nearly all actives have a fitted effect of over 55% in size
Outline: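 Cytotoxicity was assessed in parallel with Shh reporter activity by measuring live-cell protease fluorescence (CellTiter-Fluor) in NIH/3T3 cells stably carrying Gli1-Luc, treated with compound under conditioned medium stimulation for 23 hr plus 1 hr reagent incubation.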

[4] = qHTS assay to identify small molecule HDAC inhibitors (AID 1259364);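 further: wild-type HCT-116 cells with endogenous class I/II HDAC activity; nearly all actives have a fitted effect of over 45% in size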
Outline: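 Screening used wild-type human colon HCT-116 cells incubated overnight, dosed with compounds for 2 hours, and assayed with a homogeneous luminogenic HDAC I/II reagent for 30 minutes at room temperature.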

[5] = qHTS assay to identify small molecule agonists of the sonic hedgehog signaling (Shh) pathway - cell viability counter screen (AID 1259366); further: nearly all actives have a fitted effect of over 50% in size
Outline: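 Compounds in DMSO were pin-transferred onto 3T3 Gli1-Luc cells that had settled 4hr; plates then stood 24hr at 37C and 5% CO2. One hour before the end, CellTiter-Fluor was added and fluorescence recorded.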

[6] = biological target: Estrogen receptor beta (Homo sapiens) (UniProt Q92731); assay: qHTS assay to identify small molecule agonists of the estrogen receptor beta (ER-beta) signaling pathway (AID 1259377; active means well fitted activation curve with a large enough effect in the signal ratio in the repeat runs, not every such curve was filed as active; inconclusive means weak or mixed curves, or effect the other way; the % refers to the signal ratio; on activation: on the % scale 0 is the no-effect control and ±100 the full control effect); details: ER-beta-UAS-bla HEK293T, beta-lactamase FRET ratio, 16 h; activation: at 92.4 µM (top of the series) unless noted
Outline: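 qHTS in ER-beta-UAS-bla HEK293T cells: 6 hr settling, then 16 hr compound at 37C, then LiveBLAzer substrate 2 h at RT before fluorescence reading.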

[7] = qHTS assay to identify small molecule agonists of the estrogen receptor beta (ER-beta) signaling pathway - cell viability counter screen (AID 1259380); further: nearly all actives have a fitted effect of over 30% in size
Outline: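 Measured: luminescence from CellTiter-Glo after 30 min at room temperature, added to wells already read for the LiveBLAzer FRET reporter (2 hr substrate); ER-beta-UAS-bla HEK293T cells had 16 hr compound treatment at 37C, 5% CO2.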

[8] = biological target: Androgen receptor (Homo sapiens) (UniProt P10275); assay: qHTS assay to identify small molecule antagonists of the androgen receptor (AR) signaling pathway using the MDA cell line in the presence of 0.5 nM R1881 (AID 1259243); further: nearly all actives have a fitted effect of over 50% in size
Outline: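 With R1881 held at 0.5 nM (final), compound effects on MMTV-luciferase expression in MDA-kb2 cells were scored by luminescence after a 16 hr, 37C incubation.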

[9] = qHTS assay to identify small molecule antagonists of the sonic hedgehog signaling (Shh) pathway (AID 1259369; calls by dose curve; further: nearly all actives have a fitted effect of over 45% in size)
Outline: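 NIH/3T3 stable Gli1-Luc clone, 2,000 cells/well, 4hr settle; cpd + conditioned medium 24hr; Luc reagent 30min RT; luminescence.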

[10] = biological target: Estrogen receptor beta (Homo sapiens) (UniProt Q92731); assay: qHTS assay to identify small molecule antagonists of the estrogen receptor beta (ER-beta) signaling pathway (AID 1259378; active means well fitted inhibition curve with a large enough effect in the signal ratio in the repeat runs, not every such curve was filed as active; inconclusive means weak or mixed curves, or effect the other way; inactive means no such curve, though single readings can be large or run the other way; the % refers to the signal ratio; on activity, negative = inhibition: on the % scale 0 is the no-effect control and ±100 the full control effect); details: ER-beta-UAS-bla HEK293T, beta-lactamase FRET ratio, 16 h; activity, negative = inhibition: at 92.4 µM (top of the series) unless noted
Outline: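 ER-beta-UAS-bla HEK293T (GripTite) cells in 2% charcoal-stripped FBS medium were preincubated 6 hr at 37C, dosed with compound, then stimulated with 1 nM E2 (final) for 16 hr; beta-lactamase reporter read by B/G FRET fluorescence after 2 hr substrate loading.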

[11] = qHTS assay to identify small molecule agonists of the androgen receptor (AR) signaling pathway in the presence of an antagonist - cell viability counter screen (AID 1259379); further: nearly all actives have a fitted effect of over 25% in size
Outline: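 MDA-kb2 viability measured by CellTiter-Fluor fluorescence in the same wells as the luciferase signal; nilutamide 3.0uM final; 15-point compound titration; 16 hr at 37C.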

[12] = biological target: Estrogen receptor (Homo sapiens) (UniProt P03372); assay: qHTS assay to identify small molecule agonists of the estrogen receptor alpha (ER-alpha) signaling pathway in the presence of an antagonist (AID 1259383; calls by dose curve; further: nearly all actives have a fitted effect of over 15% in size)
Outline: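 Quantitative HTS confirmation: compounds titrated at 15 concentrations onto estrogen-deprived VM7Luc4E2 cells carrying a four-ERE luciferase construct, with ICI-182,780 present at 10.0nM final. Signal is luminescence after 22hr exposure.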

[13] = qHTS assay to identify small molecule phospholipidosis (PLD) inducers (AID 1259344; active means well fitted curve in the direction sought with a large enough effect; inconclusive means small, poorly fitted or top-dose-only effect, or another doubt; inactive means no such curve, though single readings can be large; an effect the other way counts as inactive or inconclusive)
Outline: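 Cells (HepG2, 900 per well) attach for 4 h, receive LipidTOX Red and compound together, incubate 24 h at 37 C, are fixed 30 min with paraformaldehyde/Hoechst, then imaged at one site per well.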

[14] = qHTS assay to identify small molecule antagonists of the estrogen receptor beta (ER-beta) signaling pathway - cell viability counter screen (AID 1259382); further: nearly all actives have a fitted effect of over 55% in size
Outline: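 Readout: luminescence, CellTiter-Glo, same wells as bla assay. System: ER-beta-UAS-bla GripTite HEK293T, 2% charcoal-stripped FBS. Exposure: compounds plus 1nM 17-beta-estradiol, 16 hr, 37C.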
Potency means the concentration at half of the fitted maximal effect; tags describe the fitted curve by direction and shape or compound fluorescence and quenching.

Chain of UniProt Q92731 (Q92731 whole entry, looked up): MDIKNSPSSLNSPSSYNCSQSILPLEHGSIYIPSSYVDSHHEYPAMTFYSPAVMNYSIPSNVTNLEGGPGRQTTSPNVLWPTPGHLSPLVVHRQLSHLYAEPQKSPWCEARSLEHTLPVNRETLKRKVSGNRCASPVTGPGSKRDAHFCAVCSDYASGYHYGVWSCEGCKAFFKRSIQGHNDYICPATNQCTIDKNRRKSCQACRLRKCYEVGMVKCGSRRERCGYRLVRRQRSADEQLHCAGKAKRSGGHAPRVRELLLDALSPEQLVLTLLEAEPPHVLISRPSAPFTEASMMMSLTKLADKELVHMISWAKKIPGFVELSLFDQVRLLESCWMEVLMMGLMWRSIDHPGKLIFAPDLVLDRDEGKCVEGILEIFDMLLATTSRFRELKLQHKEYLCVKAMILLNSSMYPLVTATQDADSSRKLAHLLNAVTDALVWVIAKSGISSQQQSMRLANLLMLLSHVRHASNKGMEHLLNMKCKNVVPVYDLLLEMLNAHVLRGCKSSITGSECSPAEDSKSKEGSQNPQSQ
Chain of UniProt P03372 (P03372 whole entry, looked up): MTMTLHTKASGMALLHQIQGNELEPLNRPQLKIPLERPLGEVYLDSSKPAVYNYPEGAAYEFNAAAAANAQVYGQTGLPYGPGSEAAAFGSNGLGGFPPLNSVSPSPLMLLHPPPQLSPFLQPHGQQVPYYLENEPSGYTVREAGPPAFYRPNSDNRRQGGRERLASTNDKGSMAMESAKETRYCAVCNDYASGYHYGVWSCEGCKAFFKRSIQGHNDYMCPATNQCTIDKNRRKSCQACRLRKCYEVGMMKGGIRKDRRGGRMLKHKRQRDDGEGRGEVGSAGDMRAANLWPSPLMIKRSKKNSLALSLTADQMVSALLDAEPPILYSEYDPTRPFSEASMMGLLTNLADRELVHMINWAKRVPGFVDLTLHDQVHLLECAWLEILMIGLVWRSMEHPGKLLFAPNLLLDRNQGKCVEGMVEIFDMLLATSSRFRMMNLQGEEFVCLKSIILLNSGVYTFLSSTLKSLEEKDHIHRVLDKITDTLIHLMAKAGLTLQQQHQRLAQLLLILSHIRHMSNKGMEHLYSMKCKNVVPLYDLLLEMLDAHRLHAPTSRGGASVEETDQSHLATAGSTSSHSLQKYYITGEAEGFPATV
Chain of UniProt P10275 (P10275 whole entry, looked up): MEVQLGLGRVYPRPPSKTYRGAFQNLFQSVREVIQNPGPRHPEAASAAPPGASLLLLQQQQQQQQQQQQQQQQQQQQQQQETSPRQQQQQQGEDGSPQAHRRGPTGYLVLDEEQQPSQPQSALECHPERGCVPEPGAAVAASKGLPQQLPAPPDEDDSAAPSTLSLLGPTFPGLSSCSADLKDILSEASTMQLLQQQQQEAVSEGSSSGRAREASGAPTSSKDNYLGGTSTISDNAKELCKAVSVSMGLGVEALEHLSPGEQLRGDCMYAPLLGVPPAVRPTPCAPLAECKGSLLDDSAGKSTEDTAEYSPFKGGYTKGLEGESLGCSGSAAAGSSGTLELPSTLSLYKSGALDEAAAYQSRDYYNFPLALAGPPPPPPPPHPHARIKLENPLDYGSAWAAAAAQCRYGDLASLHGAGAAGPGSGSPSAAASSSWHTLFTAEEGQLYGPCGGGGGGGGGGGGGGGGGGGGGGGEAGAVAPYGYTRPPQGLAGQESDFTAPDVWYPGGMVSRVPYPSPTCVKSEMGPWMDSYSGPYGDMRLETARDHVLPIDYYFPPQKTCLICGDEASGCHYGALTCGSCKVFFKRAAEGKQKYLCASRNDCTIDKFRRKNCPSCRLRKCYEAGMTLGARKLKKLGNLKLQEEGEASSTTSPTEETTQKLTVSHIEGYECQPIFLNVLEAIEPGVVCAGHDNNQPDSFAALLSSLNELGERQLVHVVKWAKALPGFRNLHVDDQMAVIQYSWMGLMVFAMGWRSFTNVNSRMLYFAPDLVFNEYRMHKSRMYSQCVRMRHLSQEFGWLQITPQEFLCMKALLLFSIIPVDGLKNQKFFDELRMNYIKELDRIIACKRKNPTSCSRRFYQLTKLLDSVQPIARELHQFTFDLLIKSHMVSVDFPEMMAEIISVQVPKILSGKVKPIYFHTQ

Q: Which Potency [1] does the source give for `CN(C)c1ccc(N=Nc2ccccc2C(=O)O)cc1` here?
A: Its Potency is inconclusive: 68.6 µM [cytotoxic, single point].

Q: And the Potency [2]?
A: The Potency was “inactive”.

Q: What about the Potency [3] of the same compound?
A: The Potency was active: 24.3 µM.

Q: What does the source list for `O=[N+]([O-])c1ccc(O/N=C/c2cc(Br)c(O)c(Br)c2)c([N+](=O)[O-])c1`?
A: Potency [1]: inconclusive: 30.5 µM [cytotoxic, partial curve]; Potency [4]: inconclusive: 6.08 µM [inhibitor, full curve, poor fit]; Potency [5]: inconclusive: 30.5 µM [cytotoxic, full curve]; Potency [3]: inconclusive: 54.2 µM [cytotoxic, partial curve]; Potency [6]: inconclusive: 3.05 µM [rising, partial curve]; Potency [7]: inconclusive: 6.82 µM [cytotoxic, full curve, poor fit]

Q: Which results are given for `C=CC(=O)OCCCCCCOC(=O)C=C`?
A: Potency [1]: inconclusive: 69.4 µM [cytotoxic, partial curve, poor fit]; Potency [8]: inconclusive: 69.4 µM [inhibitor, single point] and inconclusive: 68.6 µM [inhibitor, single point]; Potency [2]: inconclusive: 61.1 µM [rising, partial curve, poor fit]; Potency [3]: inconclusive: 27.6 µM [cytotoxic, partial curve]; Potency [9]: active: 19.6 µM and active: 19.3 µM; Potency [6]: inactive; Potency [10]: active: 54.5 µM; activity, negative = inhibition [10]: inconclusive: -62.6%; Potency [11]: inconclusive: 55.1 µM [cytotoxic, partial curve] and inconclusive: 48.6 µM [cytotoxic, partial curve]; Potency [12]: inconclusive: 77 µM [activator, single point]

Q: Which Potency [1] does the source give for `Cc1cccc(C)c1NC(=O)CN1CCN(CCCC(c2ccc(F)cc2)c2ccc(F)cc2)CC1` here?
A: The Potency was inconclusive: 29.8 µM [cytotoxic].

Q: What about the Potency [13] of the same compound?
A: Its Potency is inconclusive: 7.94 µM [activator, single point].

Q: And the Potency [5]?
A: The Potency was inconclusive: 33.5 µM [cytotoxic, single point].

Q: What about the Potency [3] of the same compound?
A: The Potency was inconclusive: 33.5 µM [cytotoxic, single point].

Q: What about the Potency [9] of the same compound?
A: Its Potency is inconclusive: 33.5 µM [inhibitor, single point].

Q: What about the Potency [11] of the same compound?
A: Its Potency is inconclusive: 29.8 µM [cytotoxic, partial curve].

Q: And the Potency [7]?
A: Its Potency is active: 26.6 µM.

Q: And the Potency [14]?
A: Its Potency is active: 26.6 µM.

Q: With `C=C(C)C(=O)OCC(C)(C)COC(=O)C(=C)C` as the compound, how does the Potency [1] read?
A: The Potency was “inactive”.

Q: Which results are given for `O=c1c(O)c(-c2ccc(O)c(O)c2)oc2cc(O)cc(O)c12`?
A: Potency [1]: inconclusive: 54.5 µM [cytotoxic, partial curve, poor fit] and inconclusive: 54.9 µM [cytotoxic, partial curve, poor fit] and inconclusive: 48.6 µM [cytotoxic, partial curve]; Potency [2]: inconclusive: 29.8 µM [rising, partial curve]; Potency [5]: inconclusive: 30.7 µM [cytotoxic, full curve] and inconclusive: 38.6 µM [cytotoxic, partial curve] and inconclusive: 29.8 µM [cytotoxic, partial curve, poor fit]; Potency [3]: inconclusive: 54.9 µM [cytotoxic, partial curve] and inconclusive: 34.4 µM [cytotoxic, partial curve]; Potency [9]: inconclusive: 34.4 µM [inhibitor, partial curve, poor fit] and inconclusive: 30.9 µM [inhibitor, full curve, poor fit] and inconclusive: 48.6 µM [inhibitor, partial curve, poor fit]; Potency [11]: active: 48.6 µM and inconclusive: 54.9 µM [cytotoxic, partial curve] and inconclusive: 43.3 µM [cytotoxic, partial curve]; Potency [12]: inconclusive: 19.5 µM [activator, full curve, poor fit]

Q: Which Potency [1] does the source give for `COC(=O)[C@H]1[C@H]2C[C@@H]3c4[nH]c5cc(OC)ccc5c4CCN3C[C@H]2C[C@@H](OC(=O)c2cc(OC)c(OC)c(OC)c2)[C@@H]1OC` here?
A: Its Potency is inconclusive: 68.5 µM [cytotoxic, partial curve, poor fit] and inconclusive: 62.9 µM [cytotoxic, single point].

Q: What about the Potency [13] of the same compound?
A: Its Potency is inconclusive: 10 µM [activator, single point].

Q: And the Potency [5]?
A: Its Potency is inconclusive: 27.3 µM [cytotoxic, partial curve] and inconclusive: 28.1 µM [cytotoxic, partial curve, poor fit].

Q: And the Potency [3]?
A: Its Potency is inconclusive: 24.3 µM [cytotoxic, partial curve] and inconclusive: 22.3 µM [cytotoxic, partial curve].

Q: What about the Potency [9] of the same compound?
A: The Potency was active: 12.2 µM and active: 15.8 µM and active: 23.7 µM.

Q: And the Potency [14]?
A: The Potency was inconclusive: 15.3 µM [cytotoxic, full curve] and inconclusive: 11.2 µM [cytotoxic, full curve, poor fit] and inconclusive: 15 µM [cytotoxic, partial curve, poor fit].

Q: What does the source list for `CN(C)c1ccc2nc3ccc(=[N+](C)C)cc-3sc2c1`?
A: Potency [1]: inconclusive: 10.4 µM [cytotoxic, partial curve] and active: 6.11 µM and active: 1.88 µM; Potency [3]: inconclusive: 33 µM [cytotoxic, single point] and inconclusive: 26.6 µM [cytotoxic, single point]; Potency [14]: inconclusive: 2.62 µM [cytotoxic, full curve] and inconclusive: 3.86 µM [cytotoxic, full curve, poor fit] and inconclusive: 2.11 µM [cytotoxic, full curve, poor fit]
